Assay results taken from PMC9783754.
No constants are given. Whether binding was seen depends on the method and setting.

Protein sequences, listed by entry. Tags and fused reporters are not part of them. Lines headed by an entry give the natural chain unless they say otherwise; changes in a name come on top. Chains listed by the source or under a name are the forms on record and can include a tag or linker.
Recombinant human sTNF (soluble form of tumor necrosis factor) (P01375, form named): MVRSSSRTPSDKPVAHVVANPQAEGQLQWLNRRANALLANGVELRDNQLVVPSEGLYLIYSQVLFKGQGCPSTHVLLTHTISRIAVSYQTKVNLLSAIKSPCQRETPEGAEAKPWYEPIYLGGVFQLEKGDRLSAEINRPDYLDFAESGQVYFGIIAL
UniProt P29034: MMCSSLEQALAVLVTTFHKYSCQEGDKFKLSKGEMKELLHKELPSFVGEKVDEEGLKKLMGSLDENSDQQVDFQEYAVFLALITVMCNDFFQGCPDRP
UniProt P26447: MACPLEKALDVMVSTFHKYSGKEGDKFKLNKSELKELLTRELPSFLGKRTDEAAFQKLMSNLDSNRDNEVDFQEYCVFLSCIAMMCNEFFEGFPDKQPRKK
UniProt P60903: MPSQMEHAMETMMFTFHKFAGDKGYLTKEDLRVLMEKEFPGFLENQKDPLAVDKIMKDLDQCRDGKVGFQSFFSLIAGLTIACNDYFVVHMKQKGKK

Target: Recombinant human sTNF (soluble form of tumor necrosis factor) (human) (UniProt P01375)
Assay: SPR; ligand (50 μg/mL sTNF or TNF-β) immobilised on a ProteOn GLH chip by amine coupling; chip flushed with running buffer for two days and several times with 10 mM glycine pH 3.3 to dissociate sTNF multimers (monomeric sTNF); Ca2+-loaded S100 protein as analyte, 10 nM–2 µM; 25 °C; 10 mM HEPES, 150 mM NaCl, 1 mM CaCl2, 0.05% TWEEN 20, pH 7.4; heterogeneous ligand model; both purified

| Substance | binding |
| --- | --- |
| Recombinant human S100A2 (from UniProt P29034 1-98) | no binding (tested: up to 2 µM; Kd exceed 10^−4 M) |
| Recombinant human S100A4 (from UniProt P26447 1-101) | no binding (tested: up to 2 µM; Kd exceed 10^−4 M) |
| Recombinant human S100A10 (from UniProt P60903 1-97) | no binding (tested: up to 2 µM; Kd exceed 10^−4 M) |
